Results published in the supplement of paper PMC3334620.
Whole data set: some 33,000 sequences, median “E-score (-0.5 to 0.5)” near -0.041, cut for the highest 2% near 0.37. The list shows a part of the results.

Target: T1, Ecm22 (UniProt Q05958)
T1 sequence: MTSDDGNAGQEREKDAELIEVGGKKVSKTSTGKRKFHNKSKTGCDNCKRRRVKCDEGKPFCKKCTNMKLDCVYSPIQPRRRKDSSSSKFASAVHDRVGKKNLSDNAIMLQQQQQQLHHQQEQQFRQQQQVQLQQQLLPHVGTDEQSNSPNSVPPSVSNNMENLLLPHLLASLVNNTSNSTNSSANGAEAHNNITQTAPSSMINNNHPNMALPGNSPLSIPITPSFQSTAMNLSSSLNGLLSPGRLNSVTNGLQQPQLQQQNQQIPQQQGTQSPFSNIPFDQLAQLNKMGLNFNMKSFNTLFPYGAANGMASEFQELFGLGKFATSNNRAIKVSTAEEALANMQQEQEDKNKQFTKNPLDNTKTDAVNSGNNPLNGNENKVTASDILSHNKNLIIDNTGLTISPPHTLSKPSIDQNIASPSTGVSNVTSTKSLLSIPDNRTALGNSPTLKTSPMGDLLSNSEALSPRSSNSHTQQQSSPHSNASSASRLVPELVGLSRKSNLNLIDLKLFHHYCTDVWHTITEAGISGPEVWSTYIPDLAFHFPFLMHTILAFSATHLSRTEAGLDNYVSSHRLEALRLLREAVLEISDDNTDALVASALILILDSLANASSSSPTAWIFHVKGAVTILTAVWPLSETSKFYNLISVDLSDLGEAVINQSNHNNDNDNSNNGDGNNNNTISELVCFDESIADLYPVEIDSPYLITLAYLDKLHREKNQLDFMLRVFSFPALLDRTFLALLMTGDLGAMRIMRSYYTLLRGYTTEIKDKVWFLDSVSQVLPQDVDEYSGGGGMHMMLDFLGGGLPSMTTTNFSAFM
Test: PBM E-score (8-mer binding enrichment) (E-score (-0.5 to 0.5)); higher = stronger / more preferred TF binding; most listed sequences are background and not binding sites
Settings: protein concentration: 200 nM; construct: GST-full length
In short: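 For each ungapped eight-base word taken together with its reverse complement, the Universal PBM Analysis Suite assigned an E-score. Binding data came from GST-tagged yeast transcription factors, applied at about 100-200 nM, on universal all-10-mer Agilent arrays made double-stranded by primer extension. Fluorescent anti-GST marked bound protein, and scans were normalised with masliner.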

Sequence	PBM E-score
GACAAGGA	-0.113
AAACTCTT	-0.254
AGAAATCC	-0.0579
AGGGATTA	0.0278
GAACGGGA	0.327
ACCCAAGC	-0.135
CGAAGAAG	0.156
AATCCGTC	0.0386
ACTACCAC	-0.216
CCTGAGCA	-0.0624
ACTACCTG	-0.128
AGTCTCAA	-0.205
GAGTGGCA	0.0213
GTACACAC	0.301
CAGCCACG	-0.171
ACAAGGCA	-0.256
ACATGGAG	-0.101
GAGCTCCA	-0.0784
AGCATCAC	-0.158
ATAATTAA	0.179
ACAAGTGT	-0.0175
AGCAGGGC	-0.0233
ACGATCTG	0.23
GCACCGCC	-0.036

Sequence	PBM E-score
GCATGAAA	0.0408
CTGGTATC	-0.157
CGCCCTGA	-0.15
AAGACATT	-0.164
GATCGGTA	0.128
ACATTCCT	-0.118
AAGAACCG	0.125
CATCTCTA	-0.0595
GCGGTTCA	-0.184
GCAACCTA	-0.183
GACCGCAA	0.18
CCAGCACG	-0.0336
AGCCGAAC	0.0556
CCCCCAAG	-0.353
ATAAACAC	0.106
GCCAAAAA	-0.181
TGGGACAA	-0.366
CGCCGATC	-0.0427
ACGAACAG	0.282
CCTCCAGG	-0.204
ACTTCTAT	0.0379
AACTACAT	-0.202
ATGCACGA	0.0562
CACAAACC	-0.308

Sequence	PBM E-score
CTCAGGAC	-0.221
ATTCAGTG	-0.116
AGACTATC	-0.0846
AGGCGTGC	-0.0547
TAGGGAGA	-0.252
AGCGCACG	0.097
ACAGTAGG	0.0971
ATCGCGCA	-0.00295
GAACACAA	0.205
GCCTCTCC	-0.22
AATATTAG	0.17
GTCATCAC	-0.135
ATGCTGAA	-0.219
AAGCCATC	-0.023
ATTAGTTA	-0.0061
CAGCCGAC	-0.0956
TCCTTAGA	-0.202
AGACCTGA	-0.243
CACGTCCA	-0.172
TGATATAA	-0.0663
ATCCCCTG	-0.0196
ACTACAGA	0.166
ACTGCTTG	-0.206
AAAACGAG	0.362

Sequence	PBM E-score
CGTCAGTA	-0.0604
GAGGGAGC	-0.152
CCGGCGAG	0.0706
AGGTTTAA	-0.15
GAGCTACC	-0.158
CCAATAAG	-0.213
GCTGTGCC	-0.145
TGCCCGAA	0.0113
GAGAAGCC	-0.0701
ACGCCTTA	0.0674
GAAGTCGC	0.108
CCACGGAA	0.0499
GTATCCGA	0.309
CTTCATAA	-0.0866
CCACTAGG	-0.424
AATACCGC	0.00652
ACTTCCAT	0.0956
GGGTCCTA	-0.218
CATTGACC	0.0205
ATTTTCCA	-0.0726
CGACAACA	0.234
GGTCGCAC	0.228
